# Data as given in paper PMC4336329 (PLoS ONE, 2015).
# Screen size: about 310,000 compounds; about 2,200 (0.71%) showed an effect of 50% or more. Effects have a minus sign here. Some of the results follow.
# Molecular target: human ether-à-go-go-related gene (hERG) potassium channel (human, UniProt Q12809)
# Assay: primary screen, population patch clamp on CHO cells stably expressing hERG
# human ether-à-go-go-related gene (hERG) potassium channel, sequence (Q12809 whole entry, looked up): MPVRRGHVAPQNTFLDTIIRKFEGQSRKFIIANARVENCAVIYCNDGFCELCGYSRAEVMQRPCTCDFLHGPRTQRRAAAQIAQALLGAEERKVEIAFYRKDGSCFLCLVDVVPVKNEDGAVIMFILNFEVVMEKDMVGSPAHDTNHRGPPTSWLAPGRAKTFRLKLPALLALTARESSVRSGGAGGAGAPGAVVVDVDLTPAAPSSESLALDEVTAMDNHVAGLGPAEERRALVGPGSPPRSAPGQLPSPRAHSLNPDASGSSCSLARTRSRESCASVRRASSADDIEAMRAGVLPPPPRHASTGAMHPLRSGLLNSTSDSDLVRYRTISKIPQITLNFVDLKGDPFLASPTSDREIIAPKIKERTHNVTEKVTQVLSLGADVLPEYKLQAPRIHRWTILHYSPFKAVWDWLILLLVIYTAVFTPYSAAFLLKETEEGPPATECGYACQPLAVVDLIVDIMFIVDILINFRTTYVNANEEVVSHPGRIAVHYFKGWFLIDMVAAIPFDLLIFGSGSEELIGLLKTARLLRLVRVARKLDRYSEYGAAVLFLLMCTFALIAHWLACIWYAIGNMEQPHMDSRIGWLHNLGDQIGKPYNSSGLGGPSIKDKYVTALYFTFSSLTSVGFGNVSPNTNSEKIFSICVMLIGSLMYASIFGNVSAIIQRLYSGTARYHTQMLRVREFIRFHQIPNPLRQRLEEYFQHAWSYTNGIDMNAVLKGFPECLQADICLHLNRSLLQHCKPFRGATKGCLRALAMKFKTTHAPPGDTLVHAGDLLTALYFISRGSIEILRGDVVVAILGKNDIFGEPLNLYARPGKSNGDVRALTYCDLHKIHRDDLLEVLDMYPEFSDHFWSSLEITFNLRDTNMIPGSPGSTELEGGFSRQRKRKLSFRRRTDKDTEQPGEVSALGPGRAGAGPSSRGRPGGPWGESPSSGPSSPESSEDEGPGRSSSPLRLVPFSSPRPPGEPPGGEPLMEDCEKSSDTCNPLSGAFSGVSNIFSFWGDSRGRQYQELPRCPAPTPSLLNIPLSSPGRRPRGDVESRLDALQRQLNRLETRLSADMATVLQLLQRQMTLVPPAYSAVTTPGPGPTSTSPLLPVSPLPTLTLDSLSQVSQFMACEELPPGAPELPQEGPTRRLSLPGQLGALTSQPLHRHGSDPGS
row,Compound,"hERG current change (%, negative = inhibition) at 1uM"
1,NC(=O)c1ccccc1NC(=O)/C=C/C(=O)O,13.2%
2,O=C(c1ccoc1)N1CCC(CO)(CCc2ccccc2)CC1,-0.129%
3,Cc1noc(/C=C/c2cccs2)c1S(=O)(=O)N1CCC(C(=O)NCCCN2CCC(C)CC2)CC1,-29.1%
4,O=C(C[n+]1cc(-c2ccc(Cl)c(Cl)c2)n2c1CCC2)c1cccs1.[Br-],10.1%
5,COCCCn1c(SCC(=O)NC2CCCC2)nnc1-c1cccs1,7.22%
6,COC(=O)CNC(=O)CN1c2cccc3cccc(c23)S1(=O)=O,-12.4%
7,CC(C)Oc1ccc(OCCSc2nc3ccccc3n2CC(=O)O)cc1,9.65%
8,CC(C)c1ccc(NC(=O)CN2C(=O)COc3ccc(S(=O)(=O)N4CCOCC4)cc32)cc1,12.5%
9,Cc1c(CCC(=O)NCCC(=O)O)c(=O)oc2c(C)c3oc4c(c3cc12)CCCC4,4.2%
10,COc1ccc2c(c1)cc(C(=O)N[C@@H](CCSC)C(=O)N1CCC(C(=O)O)CC1)n2C,16.5%
11,Cc1[nH]nc(SCC(=O)NCCc2ccccc2)c1[N+](=O)[O-],18%
12,Cc1ccccc1Oc1nc2ccccc2n2cnnc12,11.7%
13,O=C(NCc1ccco1)NC(=O)c1csc([N+](=O)[O-])c1,13.9%
14,O=C(NNc1ccnc2cc(Cl)ccc12)C1CCCCC1,2.18%
15,COc1ccc(CNc2nc3ccccc3n2C)c(O)c1,11.5%
16,Oc1ccc(C=NCC2COc3ccccc3O2)cc1 (stereo not shown),-15.8%
17,O=[N+]([O-])c1ccc(NC(=S)N2CCN(c3ccccc3)CC2)cc1,6.02%
18,Cc1ccc(F)cc1NC(=O)CN1CCN(Cc2ccccc2)CC1,-16.8%
19,CC(C)CC(=O)Nc1ccnn1C1CCN(C(=O)c2ccc(F)cc2Cl)CC1,7.28%
20,CC1CCN(S(=O)(=O)c2ccc(Br)s2)CC1,14.4%
21,C=CCSc1ccccc1C(=O)Nc1ncn[nH]1,15.3%
22,Cc1ccc(O)c(CNCCNCc2cc(C)ccc2O)c1,15.3%

row,Compound,"hERG current change (%, negative = inhibition) at 1uM"
1,CCC(=NCC1CCCO1)c1c(O)n(-c2ccc(OC)cc2)c(=O)[nH]c1=O (stereo not shown),14%
2,CC(C)c1ccc(NC(=O)C2C3C=CC4(O3)C2C(=O)N(CCCN2CCOCC2)C4C(=O)NC2CCCCC2)cc1 (stereo not shown),18%
3,O=C(CSc1nnc(CCCN2C(=O)c3cccc4cccc(c34)C2=O)n1-c1ccccc1)N1CCN(CCO)CC1,-4.42%
4,CCN(CC(=O)Nc1cccc(OC)c1)C(=O)c1ccco1,17.8%
5,N#C/C(=C\c1ccncc1)C(N)=O,9.13%
6,Fc1ccc(/C=N/n2c(COc3ccccc3)n[nH]c2=S)cc1,17.3%
7,COCCCn1cnnc1SCc1nc2sc(C(C)=O)c(C)c2c(=O)[nH]1,-2.55%
8,CCc1nnc(NC(=O)C2CC(=O)N(C3CCCCC3)C2)s1 (stereo not shown),13.4%
9,COc1ccc(CCNS(=O)(=O)c2ccc3c(c2)NC(=O)CCS3)cc1OC,14.8%
10,O=S(=O)(c1ccc(Br)s1)N1CCN(CCc2ccccc2)CC1,16.8%
11,CCCn1c(=S)[nH]c2cc(C(=O)N3CCN(c4ccccc4OC)CC3)ccc2c1=O,7.21%
12,CC(=O)Nc1ccc(NC(=O)Cn2ccc([N+](=O)[O-])n2)cc1,10.5%
13,O=C(NCc1ccco1)C1CCCCC1,10.3%
14,Cc1noc(C)c1COC(=O)CCc1nc2ccccc2s1,6.69%
15,COc1ccccc1C(=O)n1nc(-c2ccco2)nc1SC,5.24%
16,O=C(CCN1CCOCC1)N1CCCC(Nc2cccc(F)c2)C1 (stereo not shown),4.08%
17,O=C1COc2ccc(C(=O)COC(=O)/C=C/c3ccc(Br)o3)cc2N1,0.254%
18,Cc1ccc(C2CC(=O)NC(SCC(N)=O)=C2C#N)s1 (stereo not shown),6.74%
19,CN(CCOc1ccccc1)C(=O)C1CCC(=O)N(CCCN2CCCC2=O)C1 (stereo not shown),24.8%
20,Cc1ccc(C(=O)N/C(=C\c2ccc3c(c2)OCO3)C(=O)Nc2ccc(C(=O)O)cc2)cc1,6.19%
21,CC(C)Cc1ccc(S(=O)(=O)Nc2cccnc2)cc1,8.73%
